Source: patent US9353185B2, “Antibodies” (Affitech Research AS, priority 2010, dated 2016)

Legend:
CXCR4+ Ramos cell line = experiment: Induction of apoptosis (Annexin V / PI staining); assay type: cell-based, human; conditions: IgG1 0.08 to 10 μg/ml, 48 hrs, versus background level
Experimental: The ability of anti-CXCR4 antibodies to induce apoptosis was assessed on the CXCR4^+ Ramos cell line.
Ramos cells were cultivated as described above.
The Ramos cells were harvested by centrifugation, washed twice in RPMI-1640 culture medium with 10% FCS and resuspended in RPMI-1640 medium with 10% FCS to a density of 3×10^5 cells/ml. The cell suspension (250 μl) was mixed with the same volume of either antibody to be tested in dilutions (final concentration of 0.08 to 10 μg/ml) or staurosporin (25 nM) in wells of a 24-well plate and incubated at 37° C. for 48 hrs. The cells were collected by centrifugation and washed in Annexin V Binding Buffer (10 mM Hepes, 140 mM NaCl, 2.5 mM CaCl2, 0.2% BSA, pH 7.4). The cells were harvested again and resuspended in 300 μl Annexin V Binding Buffer. Both FITC-conjugated Annexin V and propidium iodide (PI) were mixed with 240 μl cell suspension resulting in a final concentration of PI of 0.2 μg/ml. The samples were analyzed immediately after adding the ligand using the 515-545 nm and 610/20 nm band pass filters on a FACSCanto II flow cytometer (BD Biosciences). The apoptotic cells were defined as Annexin V positive/PI negative and the dead cells were defined as PI positive.

CXCR4 = molecular target: T1, CXCR4 (Homo sapiens, UniProt P61073); experiment: Interference with ligand binding: scFv binding to Jurkat and Ramos cells without and with SDF-1α or AMD3100; conditions: transfected and naturally CXCR4 expressing cells
T1 construct: CRL-1596 (Ramos); host or cells: Ramos, Jurkat 6E-1, CCRF-CEM
Text: One molecule is SDF-1, the natural ligand to CXCR4, the other one is AMD3100, a peptide derived highly specific competetive inhibitor to SDF-1α binding to CXCR4.
Jurkat and Ramos cells were maintained as described above.
The scFv clones were expressed in large scale and purified as monomer fraction by SEC fractionation. The natural CXCR4^+ expressing cell lines Jurkat and Ramos were harvested from the culture flasks, washed 2 times with PBS supplemented with 0.2% BSA and 0.09% NaN3 buffer and aliquoted at 1×10^5 cells per well into V-shaped 96-well plates (Greiner Bio-One, Frickenhausen, Germany). Cells were pelleted by centrifugation (400 g, 5 min) and then incubated for 60 min at 4° C. with 1 μg SDF-1α (PeproTech EC, London, UK) and 50 μl scFv diluted to 10 μg/ml in PBS supplemented with 0.2% BSA and 0.09% NaN3 buffer, both added at the same time to the cells. A sample without ligand or 157 μg AMD3100 served as control for the specificity of CXCR4 since AMD3100 only binds to this receptor. AMD3100 was added simultaneously with the scFv to the cells. […]

mouse CXCR4 = molecular target: T2, mouse CXCR4 (Mus musculus, UniProt P70658); experiment: Species cross reactivity: binding to HEK-293 cells transiently expressing mouse CXCR4; conditions: scFv level; transiently transfected HEK-293 cells
T2 construct: expressed in transfected cells; host or cells: HEK-293 (HEK293T/17), transient transfection with Fugene
Experimental: The antibody candidates were tested on scFv level for their ability to cross-react with CXCR4 from monkey and mouse.
HEK293T/17 cells were maintained as described above.
FACS-binding analyses (EasyCyte) were performed using HEK-293 cells transiently transfected with plasmids encoding either, mouse (Gene bank accession number BC031665) or monkey (Macaca mulatta) CXCR4 (NCBI Accession number NP_001036110). Two experiments were performed, one using α-cMyc and PE-labelled goat anti-mouse IgG antibody, the second using a directly conjugated RPE-c-Myc antibody for detection. In addition, cross-reactivity on IgG level was analysed. In the latter case, antibody binding was detected with PE-conjugated goat anti-human IgG antibody.

T2 sequence (P70658 whole entry): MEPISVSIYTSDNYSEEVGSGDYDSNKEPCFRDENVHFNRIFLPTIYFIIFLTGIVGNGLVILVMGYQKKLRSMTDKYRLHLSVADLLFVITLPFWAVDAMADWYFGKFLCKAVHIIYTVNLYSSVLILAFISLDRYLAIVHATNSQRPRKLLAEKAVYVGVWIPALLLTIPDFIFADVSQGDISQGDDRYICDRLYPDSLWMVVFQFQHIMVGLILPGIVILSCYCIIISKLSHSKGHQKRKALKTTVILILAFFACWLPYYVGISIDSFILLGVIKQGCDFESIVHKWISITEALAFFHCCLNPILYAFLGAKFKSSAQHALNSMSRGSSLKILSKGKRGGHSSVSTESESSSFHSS
T1 sequence (P61073 whole entry): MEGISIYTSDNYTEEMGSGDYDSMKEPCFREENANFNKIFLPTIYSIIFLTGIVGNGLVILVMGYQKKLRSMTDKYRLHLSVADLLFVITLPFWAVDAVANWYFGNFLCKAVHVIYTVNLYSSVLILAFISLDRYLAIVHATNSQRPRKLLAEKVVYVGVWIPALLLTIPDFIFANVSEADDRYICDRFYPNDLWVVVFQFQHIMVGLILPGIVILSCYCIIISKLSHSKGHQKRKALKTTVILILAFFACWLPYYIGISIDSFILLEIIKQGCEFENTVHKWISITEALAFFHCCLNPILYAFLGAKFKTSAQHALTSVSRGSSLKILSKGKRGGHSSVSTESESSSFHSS

B1: C-1I24: human anti-CXCR4 antibody; scFv SEQ ID NO: 57; IgG1/lambda heavy chain SEQ ID NO: 116, light chain SEQ ID NO: 117 (antibody)
heavy: QVQLVQSGGGVVQPGRSLRLSCAASGFTFSSYGMHWVRQAPGKGLEWVAVISYDGSNKYYADSVKGRFTISRDNSKNTLYLQMNSLRAEDTAVYYCAKDLPITRGTGADYWGQGTLVTVSS[human IgG1 constant region left out]
light: QSVLIQPASVSGSPGQSITISCTGTSSDVGGYNYVSWYQQHPGKAPRLMIYDVTSRPSGVSNRFSGSKSGNTASLTISGLQAEDEADYYCSSYAGSYSVVFGGGTKVTVLGQPKAAPSVTLFPPSSEELQANKATLVCLISDFYPGAVTVAWKADSSPVKAGVETTTPSKQSNNKYAASSYLSLTPEQWKSHRSYSCQVTHEGSTVEKTVAPTECS
modifications: antibody sequence
CXCR4+ Ramos cell line
  induction of apoptosis (Annexin V positive/PI negative cells): no apoptosis was induced above the background level
CXCR4
  binding to all cell types tested: excellent binding
Mouse CXCR4
  cross-reactivity with mouse CXCR4: intermediate
